{"source": "the RNAGym collection of RNA variant scans (doi:10.1093/nar/gkz1192)", "parents": {"B1": {"name": "CPEB3 Ribozyme (parent)", "chain": "UAACAGGGGGCCACAGCAGAAGCGUUCACGUCGCAGCCCCUGUCAGAUUCUGGUGAAUCUGCGAAUUCUGCUGUAUAUCUC"}}, "note": "Read counts are not given, so values of variants with three or more changes are uncertain."}
{"variants_of": "B1", "assay": "self-cleavage, relative activity (ratio to wild type); higher = more cleavage; in vitro, sequencing", "procedure,_shortened": "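After error-prone PCR and barcoding, CPEB3 ribozyme mutant libraries were transcribed with T7 RNA polymerase at 37°C for 5 hours, then given 15 min with DNase I before an EDTA stop, and they cleaved during both steps. Reverse transcription with template switching preceded Illumina sequencing. Relative activity divides a variant's cleaved/total read fraction by the unmutated ribozyme's. At least 5 reads were required per variant, and three batches were averaged.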"}
{"variant": "C17U A35G U80A", "self-cleavage": 0.81}
{"variant": "G16C A28G C29A A45U", "self-cleavage": 0.22}
{"variant": "A15U U48C A56G U72C", "self-cleavage": 0.16}
{"variant": "G16A A35G A45G U49C A56G U74A U78C", "self-cleavage": 0.84}
{"variant": "G16A A21G U26A A35G C40A", "self-cleavage": 0.06}
{"variant": "C17U A20G A75U", "self-cleavage": 0.56}
{"variant": "A15U U43C A57G", "self-cleavage": 0.12}
{"variant": "A15U U49A U54C", "self-cleavage": 0.33}
{"variant": "C17U U26A C32A", "self-cleavage": 0.13}
{"variant": "C17A U31C A45U", "self-cleavage": 0.2}
{"variant": "C17U A20G G53A A65U A75G", "self-cleavage": 0.09}
{"variant": "A15U U48C A57G", "self-cleavage": 0.89}
{"variant": "C17U U26C C29U U31C U43C U51A", "self-cleavage": 0.18}
{"variant": "G16U U25A A35U C37A U41A", "self-cleavage": 0.14}
{"variant": "C17U A18U A20G U26A U48C", "self-cleavage": 0.06}
{"variant": "A15U U49G G63A", "self-cleavage": 0.12}
{"variant": "C17U A18G A45G U49C U80C", "self-cleavage": 0.4}
{"variant": "C17A U54C U76C", "self-cleavage": 0.16}
{"variant": "G16U U26A A35G U58C", "self-cleavage": 0.19}
{"variant": "A15U U26C A35G U58G U76A", "self-cleavage": 0.74}
{"variant": "C17U A28U A65G U67A", "self-cleavage": 0.06}
{"variant": "A15U U41C A77G", "self-cleavage": 1.1}
{"variant": "C17U A18U U26C C50U U54C", "self-cleavage": 0.06}
{"variant": "A15U U74C A75C", "self-cleavage": 1.17}
{"variant": "G16A U26C A64G", "self-cleavage": 0.22}
{"variant": "G16U G30A U41A", "self-cleavage": 0.15}
{"variant": "C17G A18U A56G U67C", "self-cleavage": 0.18}
{"variant": "A15U U26C U51C", "self-cleavage": 0.11}
{"variant": "C17G A47G A64G", "self-cleavage": 0.06}
{"variant": "C17G G24C A64U U74C A75G", "self-cleavage": 0.03}
{"variant": "A15U U41A U49A A57G U66C", "self-cleavage": 0.05}
{"variant": "G16U U31C U74C U80C", "self-cleavage": 0.49}
{"variant": "A15U U41A A45G U66A C68U U72C", "self-cleavage": 0.29}
{"variant": "G16C A20U U26C A45G U78C U80C", "self-cleavage": 0.17}
{"variant": "A15U U51C A57G U78C", "self-cleavage": 0.39}
{"variant": "C17G C40U A77U", "self-cleavage": 0.1}
{"variant": "G16C U41C U80C", "self-cleavage": 0.51}
{"variant": "G16U A20G U26C G42A U51C A57G", "self-cleavage": 0.07}
{"variant": "A15U U31C A35U U41A A64G A65U", "self-cleavage": 0.08}
{"variant": "G16C U25C A45U", "self-cleavage": 0.19}
{"variant": "A15U U66C U76C", "self-cleavage": 0.29}
{"variant": "G16A U26A C50U U54A U67G", "self-cleavage": 0.07}
{"variant": "G16A A45G U54A A65G U78C", "self-cleavage": 0.13}
{"variant": "A15U U31A A45U U54A U74A U78C", "self-cleavage": 0.25}
{"variant": "A15U U26A U67C U72C", "self-cleavage": 0.12}
{"variant": "G16A U31A A35G A57G G61A", "self-cleavage": 0.18}
{"variant": "A15U U41A U43C U48C", "self-cleavage": 0.38}
{"variant": "G16A A35U A47C G52U G63A", "self-cleavage": 0.17}
{"variant": "C17G A18G U67A U72C", "self-cleavage": 0.05}
{"variant": "A15U U51G U54C", "self-cleavage": 0.63}
{"variant": "C17U G22U U41A U51G U58C", "self-cleavage": 0.26}
{"variant": "C17G U67A U72A", "self-cleavage": 0.13}
{"variant": "A15U U66C A75G", "self-cleavage": 0.18}
{"variant": "A15U U51A U60A U80C", "self-cleavage": 0.28}
{"variant": "G16C A57G U74A", "self-cleavage": 0.27}
{"variant": "A15U U31C U43C A45G A57G A64G U80A", "self-cleavage": 0.09}
{"variant": "G16U A18U A65G U66C U69A", "self-cleavage": 0.07}
{"variant": "A15U U41A A64U", "self-cleavage": 0.1}
{"variant": "G16A U41C C71U", "self-cleavage": 1.15}
{"variant": "G16C C39A U41C", "self-cleavage": 0.42}
{"variant": "A15U U26C A35U U54A A57G", "self-cleavage": 0.06}
{"variant": "G16U U43C A65G", "self-cleavage": 0.05}
{"variant": "A15U U54G U74C", "self-cleavage": 0.98}
{"variant": "C17U A18U A21G G22A U41A U78A", "self-cleavage": 0.04}
{"variant": "C17A U41C A56G", "self-cleavage": 0.26}
{"variant": "C17U C23U U31A A57U", "self-cleavage": 0.18}
{"variant": "C17G U51C U60C U76A U78A", "self-cleavage": 0.07}
{"variant": "G16U A28C U31A", "self-cleavage": 0.2}
{"variant": "A15U U72C U78C", "self-cleavage": 0.78}
{"variant": "G16A A20G A35G A47G", "self-cleavage": 0.43}
{"variant": "A15U U67C G73A", "self-cleavage": 0.12}
{"variant": "C17U A21U G70U U72C", "self-cleavage": 0.06}
{"variant": "C17G A21G U67A U69A", "self-cleavage": 0.15}
{"variant": "A15U U31G U43C A56G", "self-cleavage": 0.11}
{"variant": "A15U U31A U60A A64G", "self-cleavage": 0.14}
{"variant": "G16C U25C U51C U69C", "self-cleavage": 0.12}
{"variant": "A15U U26A U58C C62U", "self-cleavage": 0.15}
{"variant": "G16A A35U U51A A56G A65G U78A", "self-cleavage": 0.06}
{"variant": "A15U U26A U67C", "self-cleavage": 0.15}
{"variant": "A15U U26C U80A", "self-cleavage": 0.71}
{"variant": "G16C U43C U67A", "self-cleavage": 0.1}
{"variant": "A15U U58C A77G", "self-cleavage": 0.38}
{"variant": "A15U U31C G36A C81A", "self-cleavage": 0.11}
{"variant": "G16A A28G U31C C37G A47G U78C", "self-cleavage": 0.11}
